# The list shows a part of the results.
# What was measured:
# Test in all cases: glycan array binding signal (z-score within array); higher = stronger binding
# Details in all cases: glycan notation: IUPAC condensed, linker removed; mutation: E347A
# [1] = target: Neu5Ac(a2-3)Gal(b1-3)[Fuc(a1-4)]GlcNAc
# How it was run: (§1)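 Glycan array binding is given as a within-array Z-score, which can be read as non-binding when negative. The arrays, 3228 of them, came from the Consortium for Functional Glycomics database and were retained only where the protein sequence was available. Z-scores were averaged across arrays of the same protein sequence at different concentrations or buffers and across linkers.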
# [2] = target: Neu5Ac(a2-3)Gal(b1-3)[Fuc(a1-4)]GlcNAc(b1-3)Gal(b1-4)[Fuc(a1-3)]GlcNAc
# How it was run: as §1
# [3] = target: Neu5Ac(a2-3)Gal(b1-3)[Neu5Ac(a2-3)Gal(b1-4)]GlcNAc
# How it was run: as §1
# [4] = target: Neu5Ac(a2-3)Gal(b1-3)[Neu5Ac(a2-6)]GalNAc
# How it was run: as §1
# Neu5Ac(a2-3)Gal(b1-4)Glc = target: Neu5Ac(a2-3)Gal(b1-4)Glc
# How it was run: as §1
# [5] = target: Neu5Ac(a2-3)Gal(b1-4)GlcNAc
# How it was run: as §1
# [6] = target: Neu5Ac(a2-3)Gal(b1-4)GlcNAc(b1-2)Man(a1-3)[GlcNAc(b1-2)Man(b1-4)GlcNAc(b1-2)Man(a1-6)]Man(b1-4)GlcNAc(b1-4)GlcNAc
# How it was run: as §1
# [7] = target: Neu5Ac(a2-3)Gal(b1-4)GlcNAc(b1-2)Man(a1-3)[Neu5Ac(a2-6)Gal(b1-4)GlcNAc(b1-2)Man(a1-6)]Man(b1-4)GlcNAc(b1-4)GlcNAc
# How it was run: as §1
# [8] = target: Neu5Ac(a2-3)Gal(b1-4)GlcNAc(b1-3)Gal(b1-3)GlcNAc
# How it was run: as §1
# [9] = target: Neu5Ac(a2-3)Gal(b1-4)GlcNAc(b1-3)Gal(b1-4)GlcNAc
# How it was run: as §1
# [10] = target: Neu5Ac(a2-3)Gal(b1-4)GlcNAc(b1-3)Gal(b1-4)GlcNAc(b1-3)Gal(b1-4)GlcNAc
# How it was run: as §1
# [11] = target: Neu5Ac(a2-3)Gal(b1-4)GlcNAc(b1-3)Gal(b1-4)[Fuc(a1-3)]GlcNAc
# How it was run: as §1
# [12] = target: Neu5Ac(a2-3)Gal(b1-4)GlcNAc(b1-6)[Gal(b1-3)]GalNAc
# How it was run: as §1
# [13] = target: Neu5Ac(a2-3)Gal(b1-4)GlcNAc(b1-6)[Neu5Ac(a2-3)Gal(b1-3)]GalNAc
# How it was run: as §1
# [14] = target: Neu5Ac(a2-3)Gal(b1-4)GlcNAc6S
# How it was run: as §1
# [15] = target: Neu5Ac(a2-3)Gal(b1-4)[Fuc(a1-3)]GlcNAc
# How it was run: as §1
# [16] = target: Neu5Ac(a2-3)Gal(b1-4)[Fuc(a1-3)]GlcNAc(b1-3)Gal
# How it was run: as §1
# [17] = target: Neu5Ac(a2-3)Gal(b1-4)[Fuc(a1-3)]GlcNAc(b1-3)Gal(b1-4)GlcNAc
# How it was run: as §1
# [18] = target: Neu5Ac(a2-3)Gal(b1-4)[Fuc(a1-3)]GlcNAc(b1-3)Gal(b1-4)[Fuc(a1-3)]GlcNAc(b1-3)Gal(b1-4)[Fuc(a1-3)]GlcNAc
# How it was run: as §1
# [19] = target: Neu5Ac(a2-3)Gal(b1-4)[Fuc(a1-3)]GlcNAc(b1-6)[Gal(b1-3)]GalNAc
# How it was run: as §1
# [20] = target: Neu5Ac(a2-3)Gal(b1-4)[Fuc(a1-3)]GlcNAc6S
# How it was run: as §1
# [21] = target: Neu5Ac(a2-3)Gal6S(b1-4)GlcNAc
# How it was run: as §1
# [22] = target: Neu5Ac(a2-3)Gal6S(b1-4)[Fuc(a1-3)]GlcNAc
# How it was run: as §1
# Neu5Ac(a2-3)GalNAc = target: Neu5Ac(a2-3)GalNAc
# How it was run: as §1
# [23] = target: Neu5Ac(a2-3)GalNAc(b1-4)GlcNAc
# How it was run: as §1
# [24] = target: Neu5Ac(a2-3)[GalNAc(b1-4)]Gal(b1-4)Glc
# How it was run: as §1
# [25] = target: Neu5Ac(a2-3)[GalNAc(b1-4)]Gal(b1-4)GlcNAc
# How it was run: as §1
# [26] = target: Neu5Ac(a2-3)[Neu5Ac(a2-6)]GalNAc
# How it was run: as §1
# Neu5Ac(a2-6)Gal = target: Neu5Ac(a2-6)Gal
# How it was run: as §1
# Neu5Ac(a2-6)Gal(b1-4)Glc = target: Neu5Ac(a2-6)Gal(b1-4)Glc
# How it was run: as §1
# [27] = target: Neu5Ac(a2-6)Gal(b1-4)GlcNAc
# How it was run: as §1
# [28] = target: Neu5Ac(a2-6)Gal(b1-4)GlcNAc(b1-2)Man(a1-3)[Gal(b1-4)GlcNAc(b1-2)Man(a1-6)]Man(b1-4)GlcNAc(b1-4)GlcNAc
# How it was run: as §1
# [29] = target: Neu5Ac(a2-6)Gal(b1-4)GlcNAc(b1-2)Man(a1-3)[GlcNAc(b1-2)Man(a1-6)]Man(b1-4)GlcNAc(b1-4)GlcNAc
# How it was run: as §1
# [30] = target: Neu5Ac(a2-6)Gal(b1-4)GlcNAc(b1-2)Man(a1-3)[GlcNAc(b1-2)Man(b1-4)GlcNAc(b1-2)Man(a1-6)]Man(b1-4)GlcNAc(b1-4)GlcNAc
# How it was run: as §1
# [31] = target: Neu5Ac(a2-6)Gal(b1-4)GlcNAc(b1-2)Man(a1-3)[Neu5Ac(a2-6)Gal(b1-4)GlcNAc(b1-2)Man(a1-6)]Man(b1-4)GlcNAc(b1-4)GlcNAc
# How it was run: as §1
# [32] = target: Neu5Ac(a2-6)Gal(b1-4)GlcNAc(b1-2)Man(a1-6)[Gal(b1-4)GlcNAc(b1-2)Man(a1-3)]Man(b1-4)GlcNAc(b1-4)GlcNAc
# How it was run: as §1
# [33] = target: Neu5Ac(a2-6)Gal(b1-4)GlcNAc(b1-2)Man(a1-6)[GlcNAc(b1-2)Man(a1-3)]Man(b1-4)GlcNAc(b1-4)GlcNAc
# How it was run: as §1
# [34] = target: Neu5Ac(a2-6)Gal(b1-4)GlcNAc(b1-3)Gal(b1-4)GlcNAc
# How it was run: as §1
# [35] = target: Neu5Ac(a2-6)Gal(b1-4)GlcNAc(b1-3)Gal(b1-4)[Fuc(a1-3)]GlcNAc(b1-3)Gal(b1-4)[Fuc(a1-3)]GlcNAc
# How it was run: as §1
# [36] = target: Neu5Ac(a2-6)Gal(b1-4)GlcNAc6S
# How it was run: as §1
# Neu5Ac(a2-6)GalNAc = target: Neu5Ac(a2-6)GalNAc
# How it was run: as §1
# [37] = target: Neu5Ac(a2-6)GalNAc(b1-4)GlcNAc
# How it was run: as §1
# Neu5Ac(a2-8)Neu5Ac = target: Neu5Ac(a2-8)Neu5Ac
# How it was run: as §1
# [38] = target: Neu5Ac(a2-8)Neu5Ac(a2-3)Gal(b1-4)Glc
# How it was run: as §1
# [39] = target: Neu5Ac(a2-8)Neu5Ac(a2-3)[GalNAc(b1-4)]Gal(b1-4)Glc
# How it was run: as §1
# [40] = target: Neu5Ac(a2-8)Neu5Ac(a2-8)Neu5Ac
# How it was run: as §1
# [41] = target: Neu5Ac(a2-8)Neu5Ac(a2-8)Neu5Ac(a2-3)Gal(b1-4)Glc
# How it was run: as §1
# [42] = target: Neu5Ac(a2-8)Neu5Ac(a2-8)Neu5Ac(a2-3)[GalNAc(b1-4)]Gal(b1-4)Glc
# How it was run: as §1
# [43] = target: Neu5Ac(a2-8)Neu5Ac(a2-8)Neu5Ac(a2-8)Neu5Ac(a2-3)[GalNAc(b1-4)]Gal(b1-4)Glc
# How it was run: as §1
# [44] = target: Neu5Ac(b2-6)Gal(b1-4)GlcNAc
# How it was run: as §1
# Neu5Ac(b2-6)GalNAc = target: Neu5Ac(b2-6)GalNAc
# How it was run: as §1
# [45] = target: Neu5Ac9Ac(a2-6)Gal(b1-4)GlcNAc
# How it was run: as §1
# [46] = target: Neu5Gc(a2-3)Gal(b1-3)GlcNAc
# How it was run: as §1
# [47] = target: Neu5Gc(a2-3)Gal(b1-3)[Fuc(a1-4)]GlcNAc
# How it was run: as §1
# Neu5Gc(a2-3)Gal(b1-4)Glc = target: Neu5Gc(a2-3)Gal(b1-4)Glc
# How it was run: as §1
# [48] = target: Neu5Gc(a2-3)Gal(b1-4)GlcNAc
# How it was run: as §1
# [49] = target: Neu5Gc(a2-3)Gal(b1-4)[Fuc(a1-3)]GlcNAc
# How it was run: as §1
# [50] = target: Neu5Gc(a2-6)Gal(b1-4)GlcNAc
# How it was run: as §1
# Neu5Gc(a2-6)GalNAc = target: Neu5Gc(a2-6)GalNAc
# How it was run: as §1
# [51] = target: Neu5Gc(b2-6)Gal(b1-4)GlcNAc
# How it was run: as §1
binder,measurement,setting,value
Surfactant Protein D (Human); Neck + Carbohydrate Recognition Domain (NCRD) (Homo sapiens) (protein) MLLFLLSALVLLTQPLGYLEAEMKTYSHRTMPSACTLVMCSSVESGLPGRDRDGREGPRGEKGDPGLPGAAGQAGMPGQAGPVGPKGDNGSVGEPGPKGDTGPSGPPGPPGVPGPAGREGALGKQGNIGPQGKPGPKGEAGPKGEVGAPGMQGSAGARGLAGPKGERGVPGERGVPGNTGAAGSAGAMGPQGSPGARGPPGLKGDKGIPGDKGAKGESGLPDVASLRQQVEALQGQVQHLQAAFSQYKKVELFPNGQSVGEKIFKTAQFVKPFTEAQLLCTQAGGQLASPRSAAENAALQQLVVAKNEAAFLSMTDSKTEGKFTYPTGESLVYSNWAPGEPNDDGGSADCVEIFTNGKWNDRACGAKRLVVCEF,glycan array binding signal (z-score),[1],-0.192
same,glycan array binding signal (z-score),[2],-0.074
same,glycan array binding signal (z-score),[3],0.156
same,glycan array binding signal (z-score),[4],0.002
same,glycan array binding signal (z-score),Neu5Ac(a2-3)Gal(b1-4)Glc,-0.421
same,glycan array binding signal (z-score),[5],0.093
same,glycan array binding signal (z-score),[6],-0.453
same,glycan array binding signal (z-score),[7],-0.294
same,glycan array binding signal (z-score),[8],-0.154
same,glycan array binding signal (z-score),[9],-0.458
same,glycan array binding signal (z-score),[10],0.019
same,glycan array binding signal (z-score),[11],0.031
same,glycan array binding signal (z-score),[12],-0.139
same,glycan array binding signal (z-score),[13],-0.476
same,glycan array binding signal (z-score),[14],-0.28
same,glycan array binding signal (z-score),[15],0.108
same,glycan array binding signal (z-score),[16],-0.17
same,glycan array binding signal (z-score),[17],0.034
same,glycan array binding signal (z-score),[18],-0.459
same,glycan array binding signal (z-score),[19],0.121
same,glycan array binding signal (z-score),[20],-0.432
same,glycan array binding signal (z-score),[21],0.541
same,glycan array binding signal (z-score),[22],-0.255
same,glycan array binding signal (z-score),Neu5Ac(a2-3)GalNAc,0.115
same,glycan array binding signal (z-score),[23],0.052
same,glycan array binding signal (z-score),[24],0.492
same,glycan array binding signal (z-score),[25],-0.024
same,glycan array binding signal (z-score),[26],0.057
same,glycan array binding signal (z-score),Neu5Ac(a2-6)Gal,-0.01
same,glycan array binding signal (z-score),Neu5Ac(a2-6)Gal(b1-4)Glc,-0.281
same,glycan array binding signal (z-score),[27],-0.009
same,glycan array binding signal (z-score),[28],0.106
same,glycan array binding signal (z-score),[29],-0.301
same,glycan array binding signal (z-score),[30],0.172
same,glycan array binding signal (z-score),[31],-0.066
same,glycan array binding signal (z-score),[32],-0.165
same,glycan array binding signal (z-score),[33],-0.09
same,glycan array binding signal (z-score),[34],0.013
same,glycan array binding signal (z-score),[35],-0.185
same,glycan array binding signal (z-score),[36],0.244
same,glycan array binding signal (z-score),Neu5Ac(a2-6)GalNAc,0.034
same,glycan array binding signal (z-score),[37],0.21
same,glycan array binding signal (z-score),Neu5Ac(a2-8)Neu5Ac,-0.039
same,glycan array binding signal (z-score),[38],-0.471
same,glycan array binding signal (z-score),[39],-0.009
same,glycan array binding signal (z-score),[40],-0.103
same,glycan array binding signal (z-score),[41],-0.19
same,glycan array binding signal (z-score),[42],0.122
same,glycan array binding signal (z-score),[43],0.449
same,glycan array binding signal (z-score),[44],-0.324
same,glycan array binding signal (z-score),Neu5Ac(b2-6)GalNAc,-0.157
same,glycan array binding signal (z-score),[45],-0.451
same,glycan array binding signal (z-score),[46],0
same,glycan array binding signal (z-score),[47],-0.071
same,glycan array binding signal (z-score),Neu5Gc(a2-3)Gal(b1-4)Glc,-0.139
same,glycan array binding signal (z-score),[48],-0.097
same,glycan array binding signal (z-score),[49],-0.155
same,glycan array binding signal (z-score),[50],-0.339
same,glycan array binding signal (z-score),Neu5Gc(a2-6)GalNAc,-0.423
same,glycan array binding signal (z-score),[51],-0.406
